Measured values: article PMC9360036
These are yes or no findings as the source states them, for the method shown. In cells and extracts the contact can be indirect. Some entries that bind do so weakly or less than the wild type.

Amino acid sequences for entries named in this document (tags omitted).
UniProt Q5VSL9: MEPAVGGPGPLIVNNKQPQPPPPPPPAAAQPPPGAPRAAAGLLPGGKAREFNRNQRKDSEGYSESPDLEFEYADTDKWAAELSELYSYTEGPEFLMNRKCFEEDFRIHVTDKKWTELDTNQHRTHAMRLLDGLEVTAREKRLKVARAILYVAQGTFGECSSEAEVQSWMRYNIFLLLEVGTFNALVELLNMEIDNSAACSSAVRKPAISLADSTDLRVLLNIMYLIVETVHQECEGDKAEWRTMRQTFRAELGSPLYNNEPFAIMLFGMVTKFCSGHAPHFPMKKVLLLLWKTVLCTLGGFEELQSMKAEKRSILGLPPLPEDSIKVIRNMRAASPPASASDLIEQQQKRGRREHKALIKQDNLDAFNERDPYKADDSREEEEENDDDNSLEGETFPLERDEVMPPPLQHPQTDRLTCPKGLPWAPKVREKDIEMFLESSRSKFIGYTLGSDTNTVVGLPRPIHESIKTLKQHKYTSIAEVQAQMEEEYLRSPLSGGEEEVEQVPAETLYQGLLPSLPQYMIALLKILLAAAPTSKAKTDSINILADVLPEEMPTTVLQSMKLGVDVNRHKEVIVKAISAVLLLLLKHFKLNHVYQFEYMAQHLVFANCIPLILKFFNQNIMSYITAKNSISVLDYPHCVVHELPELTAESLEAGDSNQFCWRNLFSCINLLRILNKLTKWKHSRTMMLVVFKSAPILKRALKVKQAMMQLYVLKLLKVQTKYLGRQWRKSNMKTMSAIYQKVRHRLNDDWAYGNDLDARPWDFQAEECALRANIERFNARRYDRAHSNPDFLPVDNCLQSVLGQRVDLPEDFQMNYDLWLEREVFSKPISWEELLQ

T1: MAP4K4 intermediate domain 1 (ID1, 290-634) (human) (UniProt O95819)
T1 sequence: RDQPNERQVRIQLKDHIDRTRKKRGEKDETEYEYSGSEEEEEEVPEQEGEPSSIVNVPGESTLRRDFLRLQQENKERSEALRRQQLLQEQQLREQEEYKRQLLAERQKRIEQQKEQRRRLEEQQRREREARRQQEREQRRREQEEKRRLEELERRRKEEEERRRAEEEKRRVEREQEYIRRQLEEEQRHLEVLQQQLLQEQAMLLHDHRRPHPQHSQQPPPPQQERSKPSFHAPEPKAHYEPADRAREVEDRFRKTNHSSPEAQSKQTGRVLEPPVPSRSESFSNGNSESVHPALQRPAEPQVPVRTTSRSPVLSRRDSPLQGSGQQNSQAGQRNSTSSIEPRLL

T2: MAP4K4 intermediate domain 2 (ID2, 635-954) (human) (UniProt O95819)
T2 sequence: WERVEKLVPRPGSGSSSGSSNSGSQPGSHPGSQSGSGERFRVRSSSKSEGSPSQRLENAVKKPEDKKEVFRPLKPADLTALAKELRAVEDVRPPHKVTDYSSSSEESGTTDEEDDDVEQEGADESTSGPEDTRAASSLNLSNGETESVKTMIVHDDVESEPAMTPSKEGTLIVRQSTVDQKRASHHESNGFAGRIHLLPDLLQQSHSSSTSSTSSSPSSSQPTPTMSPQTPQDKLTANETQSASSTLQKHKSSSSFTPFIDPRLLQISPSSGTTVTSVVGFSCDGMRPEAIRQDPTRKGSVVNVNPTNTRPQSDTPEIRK

T3: MAP4K4 kinase domain (KD, 1-289) (human) (UniProt O95819)
T3 sequence: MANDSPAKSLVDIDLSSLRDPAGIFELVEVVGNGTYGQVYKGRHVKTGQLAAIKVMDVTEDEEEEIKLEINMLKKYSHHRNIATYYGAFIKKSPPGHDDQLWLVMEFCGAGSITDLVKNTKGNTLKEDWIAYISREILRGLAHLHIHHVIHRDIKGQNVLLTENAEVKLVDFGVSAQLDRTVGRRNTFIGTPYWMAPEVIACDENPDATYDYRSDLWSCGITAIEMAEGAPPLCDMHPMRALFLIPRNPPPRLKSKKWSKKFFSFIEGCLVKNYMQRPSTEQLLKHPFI


Experiments:
[1] = target: T1, MAP4K4 intermediate domain 1 (ID1, 290-634) (human); test: co-IP; anti-FLAG antibody on Dynabeads Protein G, lysates of DAOY cells stably expressing FLAG-tagged MAP4K4 constructs (50 mM Tris-HCl pH 7.5, 150 nM NaCl as printed, 0.3% NP-40), 3 h at 4 °C; immunoblot
[2] = target: T2, MAP4K4 intermediate domain 2 (ID2, 635-954) (human); test: as above
[3] = target: T3, MAP4K4 kinase domain (KD, 1-289) (human); test: as above
[4] = target: STRN-interacting protein 1 (STRIP1) (human (endogenous in DAOY)) (UniProt Q5VSL9); test: co-IP; anti-STRN4 or anti-STRIP1 antibody on Dynabeads Protein G, endogenous proteins in lysates of DAOY cells transfected for 48 h with the indicated siRNA (among them against MAP4K4 and STRN3); normal rabbit IgG as control; immunoblot
[5] = target: 3xFLAG-BioID2-MAP4K4 (human) (UniProt O95819); test: co-IP; anti-FLAG antibody on Dynabeads Protein G, HEK-293T lysate (50 mM Tris-HCl pH 7.5, 150 nM NaCl as printed, 0.3% NP-40), 3 h at 4 °C; immunoblot
[6] = target: full-length MAP4K4-FLAG (human) (UniProt O95819); test: co-IP; anti-FLAG IP (Dynabeads Protein G) from DAOY cells expressing FLAG-tagged MAP4K4, siCTRL or siSTRN3, ± 100 ng/ml bFGF 15 min; washed in lysis buffer and kinase assay buffer; the IP fraction was then used for the in vitro VASP kinase assay

binding [1]	binding [2]	binding [3]	binding [4]	binding [5]	binding [6]	Molecule
no binding	no binding	no binding				STRN-interacting protein 1 (STRIP1) (from UniProt Q5VSL9 1-837)
no binding	no binding	no binding	binds			striatin 4 (STRN4) (protein, UniProt Q9NRL3 1-753) MMEERAAAAVAAAASSCRPLGSGAGPGPTGAAPVSAPAPGPGPAGKGGGGGGSPGPTAGPEPLSLPGILHFIQHEWARFEAEKARWEAERAELQAQVAFLQGERKGQENLKTDLVRRIKMLEYALKQERAKYHKLKFGTDLNQGEKKADVSEQVSNGPVESVTLENSPLVWKEGRQLLRQYLEEVGYTDTILDMRSKRVRSLLGRSLELNGAVEPSEGAPRAPPGPAGLSGGESLLVKQIEEQIKRNAAGKDGKERLGGSVLGQIPFLQNCEDEDSDEDDELDSVQHKKQRVKLPSKALVPEMEDEDEEDDSEDAINEFDFLGSGEDGEGAPDPRRCTVDGSPHELESRRVKLQGILADLRDVDGLPPKVTGPPPGTPQPRPHEDVFIMDTIGGGEVSLGDLADLTVTNDNDLSCDLSDSKDAFKKTWNPKFTLRSHYDGIRSLAFHHSQSALLTASEDGTLKLWNLQKAVTAKKNAALDVEPIHAFRAHRGPVLAVAMGSNSEYCYSGGADACIHSWKIPDLSMDPYDGYDPSVLSHVLEGHGDAVWGLAFSPTSQRLASCSADGTVRIWDPSSSSPACLCTFPTASEHGVPTSVAFTSTEPAHIVASFRSGDTVLYDMEVGSALLTLESRGSSGPTQINQVVSHPNQPLTITAHDDRGIRFLDNRTGKPVHSMVAHLDAVTCLAVDPNGAFLMSGSHDCSLRLWSLDNKTCVQEITAHRKKHEEAIHAVACHPSKALIASAGADALAKVFV
			binds	binds	binds	striatin 3 (STRN3) (protein, UniProt Q13033 1-797) MDELAGGGGGGPGMAAPPRQQQGPGGNLGLSPGGNGAAGGGGPPASEGAGPAAGPELSRPQQYTIPGILHYIQHEWARFEMERAHWEVERAELQARIAFLQGERKGQENLKKDLVRRIKMLEYALKQERAKYHKLKYGTELNQGDLKMPTFESEETKDTEAPTAPQNSQLTWKQGRQLLRQYLQEVGYTDTILDVRSQRVRSLLGLSNSEPNGSVETKNLEQILNGGESPKQKGQEIKRSSGDVLETFNFLENADDSDEDEENDMIEGIPEGKDKHRMNKHKIGNEGLAADLTDDPDTEEALKEFDFLVTAEDGEGAGEARSSGDGTEWDKDDLSPTAEVWDVDQGLISKLKEQYKKERKGKKGVKRANRTKLYDMIADLGDDELPHIPSGIINQSRSASTRMTDHEGARAEEAEPITFPSGGGKSFIMGSDDVLLSVLGLGDLADLTVTNDADYSYDLPANKDAFRKTWNPKYTLRSHFDGVRALAFHPVEPVLVTASEDHTLKLWNLQKTVPAKKSASLDVEPIYTFRAHIGPVLSLAISSNGEQCFSGGIDATIQWWNMPSPSVDPYDTYEPNVLAGTLVGHTDAVWGLAYSGIKNQLLSCSADGTVRLWNPQEKLPCICTYNGDKKHGIPTSVDFIGCDPAHMVTSFNTGSAVIYDLETSQSLVILSSQVDSGLQSNNHINRVVSHPTLPVTITAHEDRHIKFFDNKTGKMIHSMVAHLDAVTSLAVDPNGIYLMSGSHDCSIRLWNLDSKTCVQEITAHRKKLDESIYDVAFHSSKAYIASAGADALAKVFV
